In a collection of fitness landscapes (doi:10.1016/j.celrep.2020.107928):
Over roughly 81,000 sequences, “one-hybrid fitness for binding NBS DNA” has its median near -0.1; the highest 2% begin near 0.36. The list shows a part of the results.

B1: Caulobacter ParB omega fusion; a variant is named by its letters at X, in order, B8GW30 (parent)
chain: MESVVVGEPGMSEGRRGLGRGLSALLGEVDAAPAQAPGEQLGGSREAPIEILQRNPDQPRRTFREEDLEDLSNSIREKGVLQPILVRPSPDTAGEYQIVAGERAWRAAQRAGLKTVPIMVRELDDLAVLEIGIIENVQRADLNVLEEALSYKVLMEKFERTQENIAQTIGKSXSHVANXMRLLXLPDEVQSYLVSGELTAXHARAIAAAADPVALAKQIIEGGLSVRETEALARKAPNLSAGKSKGGRPPRVKDTDTQALESDLSSVLGLDVSIDHRGSTGTLTITYATLEQLDDLCNRLTRGI

Variants of: B1
Test: one-hybrid fitness for binding NBS DNA (the Noc-binding site; scaled: cognate 1, non-cognate 0); higher = stronger binding
Conditions: with NBS DNA site
Outline: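 Pre- and post-selection plasmids were Illumina-sequenced, three replicate libraries were pooled, and any variant with under 10 reads was removed. The libraries were Caulobacter ParB with four specificity codons randomised, selected in E. coli USO through a HIS3 reporter whose site is 19 bp from the promoter. Cells grew 48 hours at 37°C on M9 without histidine, with 0.1 mM IPTG and 5 mM 3-AT. Fitness is the log change in variant-to-wild-type read ratio, rescaled against cognate and non-cognate.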

| Variant | one-hybrid fitness for binding NBS DNA |
| --- | --- |
| GGRE | ≤ 0.2 |
| SDHV | ≤ 0.2 |
| WCAK | ≤ 0.2 |
| TDPS | ≤ 0.2 |
| WVFT | ≤ 0.2 |
| GVWG | ≤ 0.2 |
| SFKT | ≤ 0.2 |
| YTNM | ≤ 0.2 |
| FTQR | ≤ 0.2 |
| QYCC | ≤ 0.2 |
| YKTN | ≤ 0.2 |
| RSWF | ≤ 0.2 |
| RHDQ | ≤ 0.2 |
| QSWW | ≤ 0.2 |
| RKWD | ≤ 0.2 |
| GLSP | ≤ 0.2 |
| VLYC | ≤ 0.2 |
| CNFR | ≤ 0.2 |
| RKVQ | ≤ 0.2 |
| LSTP | ≤ 0.2 |
| RGNP | ≤ 0.2 |
| NQTT | ≤ 0.2 |
| DYWL | ≤ 0.2 |
| IYKS | ≤ 0.2 |
| QCRY | 0.637 |

| Variant | one-hybrid fitness for binding NBS DNA |
| --- | --- |
| CSTG | ≤ 0.2 |
| NSIV | ≤ 0.2 |
| TCQD | ≤ 0.2 |
| AQHT | ≤ 0.2 |
| VRQR | 0.265 |
| QLPY | ≤ 0.2 |
| SYAG | ≤ 0.2 |
| VSLV | ≤ 0.2 |
| RDNA | ≤ 0.2 |
| VQPL | ≤ 0.2 |
| TGLA | ≤ 0.2 |
| HHGC | ≤ 0.2 |
| KYTG | ≤ 0.2 |
| FKLS | ≤ 0.2 |
| PQQV | ≤ 0.2 |
| YIGR | ≤ 0.2 |
| DLRT | ≤ 0.2 |
| RVHV | ≤ 0.2 |
| WFVF | ≤ 0.2 |
| VLIT | ≤ 0.2 |
| TGKT | ≤ 0.2 |
| VLSP | ≤ 0.2 |
| DVFT | ≤ 0.2 |
| LFPT | ≤ 0.2 |
| EQGR | ≤ 0.2 |

| Variant | one-hybrid fitness for binding NBS DNA |
| --- | --- |
| TQEI | ≤ 0.2 |
| VEDF | ≤ 0.2 |
| HSYC | ≤ 0.2 |
| RRAY | 0.405 |
| RLLA | ≤ 0.2 |
| TNQW | ≤ 0.2 |
| LTAT | ≤ 0.2 |
| ITVF | ≤ 0.2 |
| TYNW | ≤ 0.2 |
| YVAV | ≤ 0.2 |
| PEIC | ≤ 0.2 |
| LWIS | ≤ 0.2 |
| HTLG | ≤ 0.2 |
| GAQS | ≤ 0.2 |
| QHPY | ≤ 0.2 |
| RPYN | ≤ 0.2 |
| YMYF | ≤ 0.2 |
| TDES | ≤ 0.2 |
| VTPW | ≤ 0.2 |
| MHGG | ≤ 0.2 |
| PPKL | ≤ 0.2 |
| INIE | ≤ 0.2 |
| KTYT | ≤ 0.2 |
| DQAS | ≤ 0.2 |
| KKTF | ≤ 0.2 |

| Variant | one-hybrid fitness for binding NBS DNA |
| --- | --- |
| LNFG | ≤ 0.2 |
| TEAR | ≤ 0.2 |
| TSLW | ≤ 0.2 |
| EWDK | ≤ 0.2 |
| MSQT | ≤ 0.2 |
| LILR | ≤ 0.2 |
| SRKN | ≤ 0.2 |
| VCYG | ≤ 0.2 |
| TNVS | ≤ 0.2 |
| GTNP | ≤ 0.2 |
| VLHG | ≤ 0.2 |
| PMYR | ≤ 0.2 |
| RTQN | ≤ 0.2 |
| EFAV | ≤ 0.2 |
| VYLC | ≤ 0.2 |
| TGWR | ≤ 0.2 |
| ESDL | ≤ 0.2 |
| GDYY | ≤ 0.2 |
| YTCA | ≤ 0.2 |
| WKNT | ≤ 0.2 |
| PYVR | ≤ 0.2 |
| PPVS | ≤ 0.2 |
| APTM | ≤ 0.2 |
